This is one part of the list.
Experiments:
Test in all cases: glycan array binding signal (z-score within array); higher = stronger binding
Conditions in all cases: glycan notation: IUPAC condensed, linker removed
[1] = biological target: GlcNAc(b1-3)Gal(b1-4)GlcNAc(b1-3)Gal(b1-4)GlcNAc(b1-2)Man(a1-3)[GlcNAc(b1-3)Gal(b1-4)GlcNAc(b1-3)Gal(b1-4)GlcNAc(b1-2)Man(a1-6)]Man(b1-4)GlcNAc(b1-4)GlcNAc
How it was run: (§1)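 Glycan array data came from 3228 arrays in the Consortium for Functional Glycomics database, and only arrays with an available protein sequence were kept. Glycan names were put into IUPAC-condensed notation, and columns mapping to the same glycan were averaged. The binding signal is a within-array Z-score, averaged across arrays of one protein sequence run at different concentrations or buffers and across linkers. A negative Z-score can be read as non-binding.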

[2] = biological target: GlcNAc(b1-3)Gal(b1-4)GlcNAc(b1-3)Gal(b1-4)GlcNAc(b1-2)Man(a1-3)[GlcNAc(b1-3)Gal(b1-4)GlcNAc(b1-3)Gal(b1-4)GlcNAc(b1-2)Man(a1-6)]Man(b1-4)GlcNAc(b1-4)[Fuc(a1-6)]GlcNAc
How it was run: as §1

[3] = biological target: GlcNAc(b1-3)Gal(b1-4)GlcNAc(b1-3)Gal(b1-4)GlcNAc(b1-2)[GlcNAc(b1-3)Gal(b1-4)GlcNAc(b1-3)Gal(b1-4)GlcNAc(b1-6)]Man(a1-6)[GlcNAc(b1-3)Gal(b1-4)GlcNAc(b1-3)Gal(b1-4)GlcNAc(b1-2)Man(a1-3)]Man(b1-4)GlcNAc(b1-4)[Fuc(a1-6)]GlcNAc
How it was run: as §1

[4] = biological target: GlcNAc(b1-3)Gal(b1-4)GlcNAc(b1-3)Gal(b1-4)GlcNAc(b1-3)Gal(b1-4)GlcNAc(b1-2)Man(a1-3)[GlcNAc(b1-3)Gal(b1-4)GlcNAc(b1-3)Gal(b1-4)GlcNAc(b1-3)Gal(b1-4)GlcNAc(b1-2)Man(a1-6)]Man(b1-4)GlcNAc(b1-4)GlcNAc
How it was run: as §1

[5] = biological target: GlcNAc(b1-3)Gal(b1-4)GlcNAc(b1-3)Gal(b1-4)GlcNAc(b1-3)Gal(b1-4)GlcNAc(b1-2)Man(a1-3)[GlcNAc(b1-3)Gal(b1-4)GlcNAc(b1-3)Gal(b1-4)GlcNAc(b1-3)Gal(b1-4)GlcNAc(b1-2)Man(a1-6)]Man(b1-4)GlcNAc(b1-4)[Fuc(a1-6)]GlcNAc
How it was run: as §1

[6] = biological target: GlcNAc(b1-3)Gal(b1-4)GlcNAc(b1-3)Gal(b1-4)GlcNAc(b1-3)Gal(b1-4)GlcNAc(b1-2)[GlcNAc(b1-3)Gal(b1-4)GlcNAc(b1-3)Gal(b1-4)GlcNAc(b1-3)Gal(b1-4)GlcNAc(b1-6)]Man(a1-6)[GlcNAc(b1-3)Gal(b1-4)GlcNAc(b1-3)Gal(b1-4)GlcNAc(b1-3)Gal(b1-4)GlcNAc(b1-2)Man(a1-3)]Man(b1-4)GlcNAc(b1-4)[Fuc(a1-6)]GlcNAc
How it was run: as §1

[7] = biological target: GlcNAc(b1-3)Gal(b1-4)GlcNAc(b1-3)Gal(b1-4)GlcNAc(b1-3)Gal(b1-4)GlcNAc(b1-3)Gal(b1-4)GlcNAc(b1-2)Man(a1-3)[GlcNAc(b1-3)Gal(b1-4)GlcNAc(b1-3)Gal(b1-4)GlcNAc(b1-3)Gal(b1-4)GlcNAc(b1-3)Gal(b1-4)GlcNAc(b1-2)Man(a1-6)]Man(b1-4)GlcNAc(b1-4)GlcNAc
How it was run: as §1

[8] = biological target: GlcNAc(b1-3)Gal(b1-4)GlcNAc(b1-3)Gal(b1-4)GlcNAc(b1-3)Gal(b1-4)GlcNAc(b1-3)Gal(b1-4)GlcNAc(b1-2)Man(a1-3)[GlcNAc(b1-3)Gal(b1-4)GlcNAc(b1-3)Gal(b1-4)GlcNAc(b1-3)Gal(b1-4)GlcNAc(b1-3)Gal(b1-4)GlcNAc(b1-2)Man(a1-6)]Man(b1-4)GlcNAc(b1-4)[Fuc(a1-6)]GlcNAc
How it was run: as §1

[9] = biological target: GlcNAc(b1-3)Gal(b1-4)GlcNAc(b1-3)Gal(b1-4)GlcNAc(b1-3)Gal(b1-4)GlcNAc(b1-3)Gal(b1-4)GlcNAc(b1-2)[GlcNAc(b1-3)Gal(b1-4)GlcNAc(b1-3)Gal(b1-4)GlcNAc(b1-3)Gal(b1-4)GlcNAc(b1-3)Gal(b1-4)GlcNAc(b1-6)]Man(a1-6)[GlcNAc(b1-3)Gal(b1-4)GlcNAc(b1-3)Gal(b1-4)GlcNAc(b1-3)Gal(b1-4)GlcNAc(b1-3)Gal(b1-4)GlcNAc(b1-2)Man(a1-3)]Man(b1-4)GlcNAc(b1-4)[Fuc(a1-6)]GlcNAc
How it was run: as §1

[10] = biological target: GlcNAc(b1-3)Gal(b1-4)GlcNAc(b1-3)Gal(b1-4)GlcNAc(b1-3)GalNAc
How it was run: as §1

[11] = biological target: GlcNAc(b1-3)Gal(b1-4)GlcNAc(b1-3)GalNAc
How it was run: as §1

[12] = biological target: GlcNAc(b1-3)Gal(b1-4)GlcNAc(b1-3)[GlcNAc(b1-3)Gal(b1-4)GlcNAc(b1-3)]GalNAc
How it was run: as §1

[13] = biological target: GlcNAc(b1-3)Gal(b1-4)GlcNAc(b1-6)[Gal(b1-3)]GalNAc
How it was run: as §1

[14] = biological target: GlcNAc(b1-3)Gal(b1-4)GlcNAc(b1-6)[GlcNAc(b1-3)Gal(b1-3)]GalNAc
How it was run: as §1

[15] = biological target: GlcNAc(b1-3)Gal(b1-4)GlcNAc(b1-6)[GlcNAc(b1-3)]Gal(b1-4)GlcNAc
How it was run: as §1

GlcNAc(b1-3)GalNAc = biological target: GlcNAc(b1-3)GalNAc
How it was run: as §1

GlcNAc(b1-3)Man = biological target: GlcNAc(b1-3)Man
How it was run: as §1

[16] = biological target: GlcNAc(b1-3)[GlcNAc(b1-4)][GlcNAc(b1-6)]GlcNAc
How it was run: as §1

[17] = biological target: GlcNAc(b1-3)[GlcNAc(b1-6)]Gal(b1-4)GlcNAc
How it was run: as §1

[18] = biological target: GlcNAc(b1-3)[GlcNAc(b1-6)]GalNAc
How it was run: as §1

[19] = biological target: GlcNAc(b1-4)Gal(b1-4)GlcNAc
How it was run: as §1

GlcNAc(b1-4)GlcNAc = biological target: GlcNAc(b1-4)GlcNAc
How it was run: as §1

[20] = biological target: GlcNAc(b1-4)GlcNAc(b1-4)GlcNAc
How it was run: as §1

[21] = biological target: GlcNAc(b1-4)GlcNAc(b1-4)GlcNAc(b1-4)GlcNAc(b1-4)GlcNAc
How it was run: as §1

[22] = biological target: GlcNAc(b1-4)GlcNAc(b1-4)GlcNAc(b1-4)GlcNAc(b1-4)GlcNAc(b1-4)GlcNAc
How it was run: as §1

[23] = biological target: GlcNAc(b1-4)[GlcNAc(b1-6)]GalNAc
How it was run: as §1

[24] = biological target: GlcNAc(b1-6)Gal(b1-4)GlcNAc
How it was run: as §1

GlcNAc(b1-6)GalNAc = biological target: GlcNAc(b1-6)GalNAc
How it was run: as §1

[25] = biological target: GlcNAc6S(b1-3)Gal(b1-4)GlcNAc
How it was run: as §1

Kdn(a2-3)Gal(b1-3)GalNAc = biological target: Kdn(a2-3)Gal(b1-3)GalNAc
How it was run: as §1

Kdn(a2-3)Gal(b1-3)GlcNAc = biological target: Kdn(a2-3)Gal(b1-3)GlcNAc
How it was run: as §1

Kdn(a2-3)Gal(b1-4)Glc = biological target: Kdn(a2-3)Gal(b1-4)Glc
How it was run: as §1

Kdn(a2-3)Gal(b1-4)GlcNAc = biological target: Kdn(a2-3)Gal(b1-4)GlcNAc
How it was run: as §1

[26] = biological target: Kdn(a2-3)Gal(b1-4)[Fuc(a1-3)]GlcNAc
How it was run: as §1

Kdn(a2-6)Gal(b1-4)GlcNAc = biological target: Kdn(a2-6)Gal(b1-4)GlcNAc
How it was run: as §1

[27] = biological target: Man(a1-2)Man(a1-2)Man(a1-3)Man
How it was run: as §1

[28] = biological target: Man(a1-2)Man(a1-2)Man(a1-6)[Man(a1-3)]Man
How it was run: as §1

Man(a1-2)Man(a1-3)Man = biological target: Man(a1-2)Man(a1-3)Man
How it was run: as §1

B1: AFL5 (Aspergillus fumigatus), Q4WB00 (protein)
chain: MDNFMEMTKKLGHQPELLRLRALDATYDDALEGKLVVAPLDMSEPGKKILDSGTADGTWLRNVRSKQSVPHDYYGSDVEGELFPKDPDGITYFAHSFKDPWPQQYLGFFDLVHIRGSLAGSAPEGPAPVIQNLTTLLKPGGWVQLMEMNAFSPPPNGPAMTDFAKMASEMFTGIGVGDFANNNKSMLEDAGLKNVQEKRVIVNLGKKAKPELHDQSIHGVTGPIVPLTSVARTVKSSFTGEQLDALPARVKEELETEGGQVEMIIAFGQKA
glycan array binding signal (z-score) [1]: 0.689 | glycan array binding signal (z-score) [2]: 0.981 | glycan array binding signal (z-score) [3]: 1.94 | glycan array binding signal (z-score) [4]: 0.953 | glycan array binding signal (z-score) [5]: 1.47 | glycan array binding signal (z-score) [6]: 0.666 | glycan array binding signal (z-score) [7]: 1.02 | glycan array binding signal (z-score) [8]: 0.113 | glycan array binding signal (z-score) [9]: 0.383 | glycan array binding signal (z-score) [10]: 0.11 | glycan array binding signal (z-score) [11]: 0.052 | glycan array binding signal (z-score) [12]: 0.653 | glycan array binding signal (z-score) [13]: 0.028 | glycan array binding signal (z-score) [14]: 0.134 | glycan array binding signal (z-score) [15]: -0.575 | glycan array binding signal (z-score) (GlcNAc(b1-3)GalNAc): -0.251 | glycan array binding signal (z-score) (GlcNAc(b1-3)Man): 0.386 | glycan array binding signal (z-score) [16]: -0.493 | glycan array binding signal (z-score) [17]: -0.206 | glycan array binding signal (z-score) [18]: -0.216 | glycan array binding signal (z-score) [19]: 0.475 | glycan array binding signal (z-score) (GlcNAc(b1-4)GlcNAc): -0.156 | glycan array binding signal (z-score) [20]: -0.623 | glycan array binding signal (z-score) [21]: 0.1 | glycan array binding signal (z-score) [22]: -0.321 | glycan array binding signal (z-score) [23]: -0.569 | glycan array binding signal (z-score) [24]: 0.303 | glycan array binding signal (z-score) (GlcNAc(b1-6)GalNAc): 0.056 | glycan array binding signal (z-score) [25]: -0.18 | glycan array binding signal (z-score) (Kdn(a2-3)Gal(b1-3)GalNAc): 0.195 | glycan array binding signal (z-score) (Kdn(a2-3)Gal(b1-3)GlcNAc): -0.612 | glycan array binding signal (z-score) (Kdn(a2-3)Gal(b1-4)Glc): -0.078 | glycan array binding signal (z-score) (Kdn(a2-3)Gal(b1-4)GlcNAc): 0.177 | glycan array binding signal (z-score) [26]: -0.531 | glycan array binding signal (z-score) (Kdn(a2-6)Gal(b1-4)GlcNAc): 0.092 | glycan array binding signal (z-score) [27]: -0.669 | glycan array binding signal (z-score) [28]: 0.004 | glycan array binding signal (z-score) (Man(a1-2)Man(a1-3)Man): -0.59

— the supplement of paper PMC8728848
